# The supplement of paper PMC8728848
# Some of the results follow.
# Assays:
# Test in all cases: glycan array binding signal (z-score within array); higher = stronger binding
# Conditions in all cases: glycan notation: IUPAC condensed, linker removed
# [1] = target: Fuc(a1-3)[Gal3S(b1-4)]GlcNAc
# Outline: (§1)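 The binding signal is a Z-score computed within each array and averaged over linkers. Arrays of the same protein sequence at different concentrations or buffers were also averaged together. Data originate from 3228 arrays in the Consortium for Functional Glycomics database, kept only where the protein sequence was available.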
# [2] = target: Fuc(a1-3)[Gal3S(b1-4)]GlcNAc6S
# Outline: as §1
# [3] = target: Fuc(a1-3)[GalNAc(b1-4)]GlcNAc
# Outline: as §1
# [4] = target: Fuc(a1-3)[GalNAc(b1-4)]GlcNAc6S
# Outline: as §1
# Fuc(a1-4)GlcNAc = target: Fuc(a1-4)GlcNAc
# Outline: as §1
# Fuc(b1-3)GlcNAc = target: Fuc(b1-3)GlcNAc
# Outline: as §1
# Gal(a1-2)Gal = target: Gal(a1-2)Gal
# Outline: as §1
# Gal(a1-3)Gal = target: Gal(a1-3)Gal
# Outline: as §1
# Gal(a1-3)Gal(b1-3)GlcNAc = target: Gal(a1-3)Gal(b1-3)GlcNAc
# Outline: as §1
# [5] = target: Gal(a1-3)Gal(b1-3)GlcNAc(b1-2)Man
# Outline: as §1
# [6] = target: Gal(a1-3)Gal(b1-3)GlcNAc(b1-2)Man(a1-3)[Gal(a1-3)Gal(b1-3)GlcNAc(b1-2)Man(a1-6)]Man(b1-4)GlcNAc(b1-4)GlcNAc
# Outline: as §1
# [7] = target: Gal(a1-3)Gal(b1-3)GlcNAc(b1-3)GalNAc
# Outline: as §1
# [8] = target: Gal(a1-3)Gal(b1-3)GlcNAc(b1-6)GalNAc
# Outline: as §1
# [9] = target: Gal(a1-3)Gal(b1-3)[Fuc(a1-4)]GlcNAc(b1-2)Man(a1-3)[Gal(a1-3)Gal(b1-3)[Fuc(a1-4)]GlcNAc(b1-2)Man(a1-6)]Man(b1-4)GlcNAc(b1-4)GlcNAc
# Outline: as §1
# Gal(a1-3)Gal(b1-4)Glc = target: Gal(a1-3)Gal(b1-4)Glc
# Outline: as §1
# Gal(a1-3)Gal(b1-4)GlcNAc = target: Gal(a1-3)Gal(b1-4)GlcNAc
# Outline: as §1
# [10] = target: Gal(a1-3)Gal(b1-4)GlcNAc(b1-2)Man
# Outline: as §1
# [11] = target: Gal(a1-3)Gal(b1-4)GlcNAc(b1-2)Man(a1-3)[Gal(a1-3)Gal(b1-4)GlcNAc(b1-2)Man(a1-6)]Man(b1-4)GlcNAc(b1-4)GlcNAc
# Outline: as §1
# [12] = target: Gal(a1-3)Gal(b1-4)GlcNAc(b1-3)GalNAc
# Outline: as §1
# [13] = target: Gal(a1-3)Gal(b1-4)GlcNAc(b1-6)GalNAc
# Outline: as §1
# [14] = target: Gal(a1-3)Gal(b1-4)[Fuc(a1-3)]GlcNAc
# Outline: as §1
# [15] = target: Gal(a1-3)Gal(b1-4)[Fuc(a1-3)]GlcNAc(b1-2)Man(a1-3)[Gal(a1-3)Gal(b1-4)[Fuc(a1-3)]GlcNAc(b1-2)Man(a1-6)]Man(b1-4)GlcNAc(b1-4)GlcNAc
# Outline: as §1
# Gal(a1-3)GalNAc = target: Gal(a1-3)GalNAc
# Outline: as §1
# [16] = target: Gal(a1-3)[Gal(a1-4)]Gal(b1-4)GlcNAc
# Outline: as §1
# [17] = target: Gal(a1-4)Gal(b1-3)GlcNAc(b1-2)Man(a1-3)[Gal(a1-4)Gal(b1-3)GlcNAc(b1-2)Man(a1-6)]Man(b1-4)GlcNAc(b1-4)GlcNAc
# Outline: as §1
# Gal(a1-4)Gal(b1-4)Glc = target: Gal(a1-4)Gal(b1-4)Glc
# Outline: as §1
# Gal(a1-4)Gal(b1-4)GlcNAc = target: Gal(a1-4)Gal(b1-4)GlcNAc
# Outline: as §1
# [18] = target: Gal(a1-4)Gal(b1-4)GlcNAc(b1-2)Man(a1-3)[Gal(a1-4)Gal(b1-4)GlcNAc(b1-2)Man(a1-6)]Man(b1-4)GlcNAc(b1-4)GlcNAc
# Outline: as §1
# [19] = target: Gal(a1-4)Gal(b1-4)GlcNAc(b1-3)Gal(b1-4)Glc
# Outline: as §1
# Gal(a1-4)GlcNAc = target: Gal(a1-4)GlcNAc
# Outline: as §1
# Gal(a1-6)Glc = target: Gal(a1-6)Glc
# Outline: as §1
# Gal(b1-2)Gal = target: Gal(b1-2)Gal
# Outline: as §1
# Gal(b1-3)Gal = target: Gal(b1-3)Gal
# Outline: as §1
# Gal(b1-3)Gal(b1-4)GlcNAc = target: Gal(b1-3)Gal(b1-4)GlcNAc
# Outline: as §1
# Gal(b1-3)GalNAc = target: Gal(b1-3)GalNAc
# Outline: as §1
# [20] = target: Gal(b1-3)GalNAc(a1-3)[Fuc(a1-2)]Gal(b1-4)Glc
# Outline: as §1
# [21] = target: Gal(b1-3)GalNAc(a1-3)[Fuc(a1-2)]Gal(b1-4)GlcNAc
# Outline: as §1
# Gal(b1-3)GalNAc(b1-3)Gal = target: Gal(b1-3)GalNAc(b1-3)Gal
# Outline: as §1
# [22] = target: Gal(b1-3)GalNAc(b1-3)Gal(a1-4)Gal(b1-4)Glc
# Outline: as §1
# [23] = target: Gal(b1-3)GalNAc(b1-4)Gal(b1-4)Glc
# Outline: as §1
# [24] = target: Gal(b1-3)GalNAc(b1-4)[Neu5Ac(a2-3)]Gal(b1-4)Glc
# Outline: as §1
# Gal(b1-3)GlcNAc = target: Gal(b1-3)GlcNAc
# Outline: as §1
# [25] = target: Gal(b1-3)GlcNAc(a1-3)Gal(b1-4)GlcNAc
# Outline: as §1
# [26] = target: Gal(b1-3)GlcNAc(a1-6)Gal(b1-4)GlcNAc
# Outline: as §1
# Gal(b1-3)GlcNAc(b1-2)Man = target: Gal(b1-3)GlcNAc(b1-2)Man
# Outline: as §1
binder,measurement,setting,value
"CFEM-CGl (Candida glabrata), Q6FRS0 (protein) VLATPPACLLACVAQVSKQSSQCHTLNQVGCFCENENTAIKNCLDSICPNGNSDAAYTAFKNSCGDVGKAVASV",glycan array binding signal (z-score),[1],-0.184
same,glycan array binding signal (z-score),[2],0.702
same,glycan array binding signal (z-score),[3],-0.139
same,glycan array binding signal (z-score),[4],-0.476
same,glycan array binding signal (z-score),Fuc(a1-4)GlcNAc,-0.026
same,glycan array binding signal (z-score),Fuc(b1-3)GlcNAc,-0.346
same,glycan array binding signal (z-score),Gal(a1-2)Gal,-0.073
same,glycan array binding signal (z-score),Gal(a1-3)Gal,-0.361
same,glycan array binding signal (z-score),Gal(a1-3)Gal(b1-3)GlcNAc,-0.314
same,glycan array binding signal (z-score),[5],-0.042
same,glycan array binding signal (z-score),[6],-0.158
same,glycan array binding signal (z-score),[7],-0.369
same,glycan array binding signal (z-score),[8],0.089
same,glycan array binding signal (z-score),[9],-0.08
same,glycan array binding signal (z-score),Gal(a1-3)Gal(b1-4)Glc,-0.376
same,glycan array binding signal (z-score),Gal(a1-3)Gal(b1-4)GlcNAc,-0.172
same,glycan array binding signal (z-score),[10],-0.401
same,glycan array binding signal (z-score),[11],-0.147
same,glycan array binding signal (z-score),[12],-0.325
same,glycan array binding signal (z-score),[13],-0.193
same,glycan array binding signal (z-score),[14],-0.1
same,glycan array binding signal (z-score),[15],0.334
same,glycan array binding signal (z-score),Gal(a1-3)GalNAc,-0.246
same,glycan array binding signal (z-score),[16],-0.286
same,glycan array binding signal (z-score),[17],-0.389
same,glycan array binding signal (z-score),Gal(a1-4)Gal(b1-4)Glc,-0.153
same,glycan array binding signal (z-score),Gal(a1-4)Gal(b1-4)GlcNAc,0.004
same,glycan array binding signal (z-score),[18],-0.261
same,glycan array binding signal (z-score),[19],-0.362
same,glycan array binding signal (z-score),Gal(a1-4)GlcNAc,0.181
same,glycan array binding signal (z-score),Gal(a1-6)Glc,0.158
same,glycan array binding signal (z-score),Gal(b1-2)Gal,-0.181
same,glycan array binding signal (z-score),Gal(b1-3)Gal,3.15
same,glycan array binding signal (z-score),Gal(b1-3)Gal(b1-4)GlcNAc,2.81
same,glycan array binding signal (z-score),Gal(b1-3)GalNAc,2.44
same,glycan array binding signal (z-score),[20],0.176
same,glycan array binding signal (z-score),[21],0.168
same,glycan array binding signal (z-score),Gal(b1-3)GalNAc(b1-3)Gal,6.73
same,glycan array binding signal (z-score),[22],0.709
same,glycan array binding signal (z-score),[23],9.88
same,glycan array binding signal (z-score),[24],1.27
same,glycan array binding signal (z-score),Gal(b1-3)GlcNAc,-0.469
same,glycan array binding signal (z-score),[25],-0.285
same,glycan array binding signal (z-score),[26],-0.322
same,glycan array binding signal (z-score),Gal(b1-3)GlcNAc(b1-2)Man,0.222
